Target: T1, human CD4 (human, UniProt P01730)
T1 construct: whole, on cells
Assay: immunofluorescence on transfected COS7 cells, anti-human Fc detection
Description: To determine if the ECD of PRO20080 can interact with a wild type PRO20080 on the cell surface, COS7 cells were transfected with wild type PRO20080 or human CD4, which contains an Ig domain, for use as a control. Forty-eight hours after transfection, the transfected cells washed and incubated with 5 µg/ml purified PRO20080 ECD-Fc fusion protein plus 5% normal goat serum. The treated cells were washed and fixed in 4% paraformadehyde for 15 minutes and then probed with a biotinlyated goat anti-human Fc antibody (Jackson Immunoreseach) at a dilution of 1:400. After a 30 minute incubation period, the fixed cells were washed and subsequently probed with a 1:400 dilution of Cy3-conjugated streptavidin label (Jackson Immunoresearch) for detection.

B1: PRO20080 ECD-Fc fusion protein (Fc fusion, human)
chain: CFGPGNVVSQSSLTPLMVNGILGESVTLPLEFPAGEKVNFITWLFNETSLAFIVPHETKSPEIHVTNPKQGKRLNFTQSYSLQLSNLKMEDTGSYRAQISTKTSAKLSSYTLRILRQLRNIQVTNHSQLFQNMTCELHLTCSVEDADDNVSFRWEALGNTLSSQPNLTVSWDPRISSEQDYTCIAENAVSNLSFSVSAQKLCEDVKIQYTDTKMIL[omitted - human IgG1 Fc]
notes: domain: Fc; also called PRO20080-Fc fusion protein; PRO20080-Fc
binding result: no binding (tested: 5 µg/ml)
